Screen size: about 39,000 compounds; about 220 (0.56%) showed activity. The list shows a part of the results.
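Note: static incubation at 37 °C against the wild-type strain, values averaged over two biological replicates.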

The test system of this assay is Escherichia coli K-12 BW25113. The assay is described as follows: relative growth (OD600 normalised to plate interquartile mean) (fraction); higher = less growth inhibition, active = 0.2 or less. Conditions: 50 µM; LB; incubation time: overnight (16-24 h).
In the case of `C[C@@H]1CN([C@H](C)CO)C(=O)Cc2cc(NC(=O)Nc3cccc4ccccc34)ccc2O[C@@H]1CN(C)C(=O)Nc1cccc2ccccc12`, the relative growth was inactive: 1.03.

Consider `CC(C)N1CC=C[C@@]23O[C@@H]4C=CCCOC(=O)[C@@H]4[C@H]2C(=O)N([C@@H](C)CO)[C@@H]3C1=O`, for which the relative growth was inactive: 1.02. As for `CC[N+](CC)(CC(=O)Nc1c(C)cccc1C)Cc1ccccc1.O=C([O-])c1ccccc1`, the relative growth is inactive: 1.01. The result for `C[C@@H](O)C#Cc1ccc2c(c1)O[C@@H](CN(C)C(=O)c1ccncc1)[C@@H](C)CN([C@@H](C)CO)S2(=O)=O` reads inactive: 1.01.

Consider `CO[C@H]1CN(C)C(=O)c2cc(NS(C)(=O)=O)ccc2OC[C@@H](C)N(C(=O)c2ccc3c(c2)OCO3)C[C@H]1C`, for which the relative growth is inactive: 0.986. As for `C[C@@H]1CCCCO[C@H](CN(C)C(=O)Nc2ccc3c(c2)OCO3)[C@H](C)CN([C@H](C)CO)C(=O)c2cc(NC(=O)Nc3ccc(C(F)(F)F)cc3)ccc2O1`, the figure is inactive: 0.996. Turning to `COc1ccc2c3c([nH]c2c1)[C@@H](CO)N(C[C@]13CCN(CC1)C(=O)Nc1ccc2c(c1)OCO2)C(=O)Nc1ccc(cc1)F`, the relative growth is inactive: 1. As for `COc1ccc(NC(=O)N(C)C[C@H]2Oc3c(NC(=O)c4cc(C)nn4C)cccc3C(=O)N([C@H](C)CO)C[C@@H]2C)cc1`, the figure is inactive: 1; as for `COCC#Cc1cnc2c(c1)C(=O)N([C@H](C)CO)C[C@H](C)[C@@H](CN(C)C(=O)CCN1CCCCC1)O2`, inactive: 1.01; as for `NCCCC[C@@H](N)C(=O)N[C@@H](Cc1c[nH]c2ccccc12)C(=O)N[C@@H](CCCCN)C(=O)O`, inactive: 0.994.

As to `COc1ccc(S(=O)(=O)Nc2ccc3c(c2)C(=O)N([C@H](C)CO)C[C@H](C)[C@@H](CN(C)C(=O)Nc2ccc4c(c2)OCO4)OCCCC[C@H](C)O3)cc1`, the relative growth is inactive: 1.01.

`C[C@@H]1CCCCO[C@@H](CN(C)C(=O)c2ccccc2)[C@@H](C)CN([C@H](C)CO)C(=O)c2cc(NS(=O)(=O)c3ccc(Cl)cc3)ccc2O1`: the relative growth was inactive: 0.982. As for `C[C@@H](O)[C@@H](O)[C@@H](O)C/C=N/NC(=O)c1ccccn1`, the figure is inactive: 0.996; as for `CC(C)NC(=O)Nc1ccc2c(c1)C(=O)N([C@H](C)CO)C[C@@H](C)[C@H](CN(C)C(=O)Nc1ccc(F)cc1)OCCCC[C@@H](C)O2`, inactive: 0.965. On to `CO[C@@]1(C2=NCCN2)COc2ccccc2O1`, for which the relative growth was inactive: 0.988. The result for `NC[C@H](c1ccco1)N1CCCCCC1` reads inactive: 0.992; that for `C=CC(C)(O)CCC1C(=C)CC(OC(C)=O)C2C(C)(C)CCCC12C` (stereo not drawn), inactive: 0.72. Regarding `Cc1noc(C)c1NC(=O)N(C)C[C@H]1OCCCC[C@@H](C)Oc2ccc(NC(=O)c3ccccc3)cc2C(=O)N([C@H](C)CO)C[C@H]1C`, the relative growth is inactive: 0.994.

For `Cn1cnc(S(=O)(=O)N[C@H]2C=C[C@@H](CC(=O)Nc3ccccc3)O[C@H]2CO)c1`, the relative growth is inactive: 0.979. For the compound `COc1ccc(S(=O)(=O)Nc2ccc3c(c2)C(=O)N([C@@H](C)CO)C[C@@H](C)[C@H](CN(C)C(=O)NC(C)C)O3)cc1`, the relative growth was inactive: 0.982.

In the case of `COc1ccc(NC(=O)N(C)C[C@@H]2Oc3c(NS(C)(=O)=O)cccc3C(=O)N([C@H](C)CO)C[C@@H]2C)cc1`, the relative growth was inactive: 0.99. As for `C[C@H]1CN([C@@H](C)CO)C(=O)c2cc(NS(=O)(=O)c3cccs3)ccc2O[C@@H]1CN(C)S(=O)(=O)c1ccc(F)cc1`, the figure is inactive: 0.898.

Take `COc1ccc([Si](C)(C)[C@@H]2[C@@H](CC(=O)N3Cc4ccccc4C[C@H]3CO)O[C@]3(C(=O)N(C)c4c(Br)cc(C)cc43)[C@H]2C)cc1`: the relative growth was inactive: 1. In the case of `C[C@H]1CN([C@@H](C)CO)C(=O)c2cccc(NC(=O)Nc3ccc4c(c3)OCO4)c2O[C@@H]1CN(C)Cc1ccc(-c2ccccc2)cc1`, the relative growth is inactive: 0.993. As for `Cc1ccc(S(=O)(=O)N(C)C[C@H]2Oc3ccc(NC(=O)C4CC4)cc3C(=O)N([C@H](C)CO)C[C@@H]2C)cc1`, the figure is inactive: 1; as for `O=C(Cc1ccncc1)Nc1ccc2c(c1)[C@H]1C[C@@H](CC(=O)N3CCc4ccccc4C3)O[C@H](CO)[C@H]1O2`, inactive: 1.02. The result for `C[C@@H]1CCCCO[C@H](CN(C)C(=O)Nc2cccc3ccccc23)[C@H](C)CN([C@@H](C)CO)C(=O)c2cc(NC(=O)Cc3ccccc3)ccc2O1` reads inactive: 1; that for `COc1ccc(S(=O)(=O)Nc2ccc3c(c2)CC(=O)N([C@@H](C)CO)C[C@H](C)[C@H](CN(C)S(=O)(=O)c2ccc(C)cc2)O3)cc1`, inactive: 1.03; that for `Cn1nnnc1SCC(=O)Nc1ncccn1`, inactive: 0.871. The result for `COc1ccc(NC(=O)Nc2cccc3c2O[C@@H](CN(C)S(=O)(=O)c2cn(C)cn2)[C@H](C)CN([C@H](C)CO)C3=O)cc1` reads inactive: 0.978; that for `C[C@@H]1CN([C@@H](C)CO)C(=O)c2cccc(NC(=O)c3nc4ccccc4s3)c2O[C@@H]1CN(C)CC1CCCCC1`, inactive: 1.02. For the compound `C[C@@H]1CN([C@@H](C)CO)C(=O)c2cccc(NS(=O)(=O)c3ccc(F)cc3)c2O[C@H]1CN(C)S(=O)(=O)c1ccccc1`, the relative growth is inactive: 1.03. In the case of `O=C(CCc1ccc(O)cc1)c1c(O)cc(O)cc1O`, the relative growth is inactive: 1.14. The result for `Cc1noc(C)c1S(=O)(=O)Nc1ccc2c(c1)C(=O)N([C@@H](C)CO)C[C@H](C)[C@H](CN(C)CC1CCCCC1)OCCCC[C@H](C)O2` reads inactive: 1.04; that for `O=C(C[C@@H]1CC[C@H]2[C@@H](COC[C@@H](O)CN2S(=O)(=O)c2cccc(Cl)c2)O1)NCCCN1CCOCC1`, inactive: 0.999. For `CC(C)NC(=O)N(C)C[C@@H]1Oc2ccc(NC(=O)C3CCCCC3)cc2CC(=O)N([C@H](C)CO)C[C@@H]1C`, the relative growth was inactive: 0.969. As to `C[C@@H]1CCCCO[C@H](CN(C)C(=O)Nc2ccccc2)[C@@H](C)CN([C@H](C)CO)C(=O)c2cc(NS(=O)(=O)c3ccc(F)cc3)ccc2O1`, the relative growth is inactive: 1. The result for `C[C@@H]1CN([C@@H](C)CO)C(=O)c2cc(NS(=O)(=O)c3ccccc3)ccc2O[C@@H](C)CCCCO[C@@H]1CN(C)C(=O)Nc1ccc2c(c1)OCO2` reads inactive: 0.989.

Values taken from the supplement of paper PMC9446081.
